Source: a compilation of properties of binary mixtures (doi:10.1016/j.jct.2008.09.001)
The densities may have been worked out from excess volumes.

Assay: xn = mol fraction of the nth substance listed
Settings: 101.3 kPa

CCCCCCCC[n+]1ccccc1.F[B-](F)(F)F + O
mass density [kg/m3]
Settings	x2 = 0	x2 = 0.1	x2 = 0.184	x2 = 0.324	x2 = 0.477	x2 = 0.562	x2 = 0.67	x2 = 0.758	x2 = 0.783
283.15 K	1123.4	1122.2	1120.5	1117.2	1113.1	1110.3	1105.5	1099.1	1096.6
288.15 K	–	–	–	–	–	1106.8	–	–	1093.6
293.15 K	1116.2	–	–	–	1106	1103.1	1098.4	1092.4	1089.9
298.15 K	1112.7	1111.5	1109.9	1106.7	1102.5	1099.6	–	–	1086
303.15 K	1109.2	1107.9	1106.3	1103.2	1099	1096.2	1091.3	1085	1082.4
308.15 K	–	1104.4	1102.9	1099.8	1095.5	1092.4	1087.6	1081.6	–
313.15 K	1102.2	1100.9	1099.4	1096.1	1091.8	–	–	1077.8	1075.6
318.15 K	–	1097.4	1095.9	–	1088.1	1085.1	1080.5	1075	1072.8
323.15 K	1095.4	1094	1092.4	–	1084.7	1081.7	1077.1	1071.3	1069.3
328.15 K	1091.9	–	–	1085.7	1081.3	1078.3	1073.5	–	1065.2
333.15 K	–	–	–	1082.2	1077.6	1074.3	1069.3	–	1061.3
338.15 K	1085.1	1083.5	1082	1078.8	1074.1	1070.8	–	1060	1057.8
343.15 K	1081.6	1080.1	1078.5	–	1061.4	1067.4	–	1056.4	1054.1
348.15 K	–	1076.7	1075.1	1071.9	–	1064.2	1058.8	1052.8	1050.3
353.15 K	1074.9	–	–	–	–	–	–	–	–

CCCC[n+]1ccccc1.F[B-](F)(F)F + O
mass density [kg/m3]
Settings	x2 = 0	x2 = 0.11	x2 = 0.263	x2 = 0.391	x2 = 0.414	x2 = 0.549	x2 = 0.637	x2 = 0.724	x2 = 0.856
283.15 K	1224	1219.6	–	1206.2	1204.7	1194.4	–	–	1135.8
288.15 K	1220.4	–	1209.5	–	1201.3	1190.8	–	1168	1132.4
293.15 K	–	1212.7	–	–	1197.6	1187.1	1177.6	1164.2	1128.9
298.15 K	1213.4	1209.2	1202.5	1195.5	1194.1	1183.5	1173.9	–	1125.4
303.15 K	–	–	1199	–	1190.5	–	1170.3	1156.8	1121.9
308.15 K	1206.6	1202.4	1195.5	1188.4	1186.9	1176.3	1166.6	1153.1	1118.3
313.15 K	1203.2	1198.9	–	–	1183.4	–	1162.9	–	1114.7
318.15 K	1199.8	1195.5	1188.5	1181.4	1179.9	1169.2	1159.3	1145.9	1111
323.15 K	1196.4	1192.1	1185.2	1177.9	1176.4	1165.4	1155.6	1142	–
328.15 K	1193	–	1181.6	1174.3	1172.9	1161.8	1152	–	1103.6
333.15 K	1189.6	1185.3	1178.3	1171	–	–	1148.3	1134.4	1099.9
338.15 K	1186.3	1181.9	1174.8	1167.5	1165.9	1154.7	–	1130.9	1096.1
343.15 K	1182.9	–	–	–	1162.4	1151.2	1141.1	1127.1	1092.3
353.15 K	1176	–	–	–	–	–	–	–	–
